Experimental data from paper PMC5714546 (Journal of molecular biology, 2016).

Experiments:
[1] = target: T1, RhoGAP domain of human Myo9b (Myo9b-RhoGAP, residues 1691-1916) (human, UniProt Q13459-1 1691-1916); assay: SEC
T1 sequence (looked up): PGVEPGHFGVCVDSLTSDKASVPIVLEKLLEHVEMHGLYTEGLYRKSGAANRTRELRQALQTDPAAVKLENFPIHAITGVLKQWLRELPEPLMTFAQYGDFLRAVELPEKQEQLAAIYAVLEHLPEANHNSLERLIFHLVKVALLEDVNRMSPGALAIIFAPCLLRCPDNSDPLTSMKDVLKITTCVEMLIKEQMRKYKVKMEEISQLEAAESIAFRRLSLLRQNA

[2] = target: T2, Myo9b-RhoGAP (residues 1691-1916) V1870A (human, UniProt Q13459-1 1691-1916, V1870A); assay: ITC
T2 sequence (looked up): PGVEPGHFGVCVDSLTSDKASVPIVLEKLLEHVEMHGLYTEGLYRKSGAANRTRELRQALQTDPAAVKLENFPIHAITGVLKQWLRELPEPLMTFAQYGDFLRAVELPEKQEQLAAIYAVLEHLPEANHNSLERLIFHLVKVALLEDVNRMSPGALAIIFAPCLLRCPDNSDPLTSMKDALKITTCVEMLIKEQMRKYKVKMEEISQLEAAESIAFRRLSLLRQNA

[3] = target: T3, Myo9b-RhoGAP (residues 1691-1916) R1742E (human, UniProt Q13459-1 1691-1916, R1742E); assay: ITC
T3 sequence (looked up): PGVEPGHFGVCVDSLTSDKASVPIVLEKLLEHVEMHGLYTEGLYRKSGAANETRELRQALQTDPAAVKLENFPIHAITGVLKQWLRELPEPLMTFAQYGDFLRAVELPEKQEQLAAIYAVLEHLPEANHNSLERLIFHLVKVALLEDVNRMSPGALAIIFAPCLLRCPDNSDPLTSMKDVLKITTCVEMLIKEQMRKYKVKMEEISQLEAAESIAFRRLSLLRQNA

[4] = target: T4, Myo9b-RhoGAP (residues 1691-1916) I1848A (human, UniProt Q13459-1 1691-1916, I1848A); assay: ITC
T4 sequence (looked up): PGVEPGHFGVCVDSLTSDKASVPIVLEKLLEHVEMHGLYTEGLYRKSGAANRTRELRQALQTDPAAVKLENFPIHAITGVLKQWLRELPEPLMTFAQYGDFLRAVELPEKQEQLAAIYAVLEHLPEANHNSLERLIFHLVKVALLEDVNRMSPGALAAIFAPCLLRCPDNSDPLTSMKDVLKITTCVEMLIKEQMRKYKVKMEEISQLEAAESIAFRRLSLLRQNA

[5] = target: T5, Myo9b-RhoGAP (residues 1691-1916) R1776A (human, UniProt Q13459-1 1691-1916, R1776A); assay: ITC
T5 sequence (looked up): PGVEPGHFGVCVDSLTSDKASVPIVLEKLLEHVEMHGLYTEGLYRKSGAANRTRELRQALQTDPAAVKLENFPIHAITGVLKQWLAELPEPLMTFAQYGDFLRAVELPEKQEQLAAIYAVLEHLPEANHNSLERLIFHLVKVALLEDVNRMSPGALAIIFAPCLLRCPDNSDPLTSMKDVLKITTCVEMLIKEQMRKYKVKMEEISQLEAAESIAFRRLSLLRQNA

[6] = target: T6, Myo9b-RhoGAP (residues 1691-1916) R1744E (human, UniProt Q13459-1 1691-1916, R1744E); assay: ITC
T6 sequence (looked up): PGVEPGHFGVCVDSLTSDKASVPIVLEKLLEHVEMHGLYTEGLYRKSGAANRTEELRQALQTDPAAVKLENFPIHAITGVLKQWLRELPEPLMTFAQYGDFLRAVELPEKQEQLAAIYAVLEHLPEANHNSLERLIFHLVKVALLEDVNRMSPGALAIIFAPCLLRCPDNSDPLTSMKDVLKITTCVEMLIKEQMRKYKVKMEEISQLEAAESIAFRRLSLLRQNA

[7] = target: T7, GST-tagged Myo9b-RhoGAP, wild type (human, UniProt Q13459-1 1691-1916); assay: pull-down
T7 sequence (looked up): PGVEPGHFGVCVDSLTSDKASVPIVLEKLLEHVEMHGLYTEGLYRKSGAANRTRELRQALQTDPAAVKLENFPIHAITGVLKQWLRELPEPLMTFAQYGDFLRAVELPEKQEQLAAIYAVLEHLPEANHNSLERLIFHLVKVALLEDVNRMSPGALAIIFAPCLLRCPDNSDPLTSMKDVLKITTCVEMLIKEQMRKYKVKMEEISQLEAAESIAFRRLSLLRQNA

binding result [1]: binds
binding result [2]: binds
binding result [3]: binds
binding result [4]: binds
binding result [5]: binds
binding result [6]: binds
binding result [7]: binds
B1: human RhoA ([…], F25N) (domain or fragment)
chain: not shown
